Results on 43 molecules are retold here after ChEMBL document CHEMBL4888484, “Replenishing the malaria drug discovery pipeline: Screening and hit evaluation of the MMV Hit Generation Library 1 (HGL1) against asexual blood stage Plasmodium falciparum ,using a nano luciferase reporter read-out” (2022).

The whole screen tested about 150,000 compounds, of which about 540 (0.36%) showed an effect of 50% or more. Some of the results follow.

The test has as its system Plasmodium falciparum. The test is described as follows: Primary screen in NF54 nanoGlo assay, in single point, at 2uM, 72h; a lower Z score goes with more inhibition. In kind it is functional, Erythrocyte. Conditions: timepoint 72 hour.
Regarding `C[C@@H](CCc1cccn1C)Nc1ccccc1S(C)(=O)=O`, the “% Inhibition” value turned out to be 1% and the Z score is on record as -0.21.

Take `O=C(O)c1ccnc(Oc2ccc(Cl)cc2C2CCCCC2)c1`: the “% Inhibition” value worked out at 5% and the Z score is reported as -0.61.

Regarding `c1ccc(CNc2ncc(CN3CC(c4cccnc4)C3)cn2)cc1`, the “% Inhibition” value is listed as -4% and the Z score is listed as 0.73.

As to `Cc1cc(C)c(CNC(=O)COCC(F)(F)C(F)F)cn1`, the “% Inhibition” value is given as -11% and the Z score worked out at 1.39.

Turning to `CCOCCCN(CCC(=O)N[C@@H](C)CC)C(=O)c1cnccn1`, the “% Inhibition” value is reported as -14% and the Z score is on record as 1.99.

As to `Cc1cc(C(=O)N2CCN[C@H](c3cccc(Cl)c3)C2)[nH]n1`, the “% Inhibition” value is -3% and the Z score is 0.44.

Take `Cc1cccc(OCC(=O)N2C3CCC2Cn2c(nn(CC(C)C)c2=O)C3)c1` (stereo unspecified): the “% Inhibition” value was -8% and the Z score is listed as 0.96.

`CC[C@@]1(C)CC(=O)c2cc(NC(=O)N3CCc4n[nH]cc4C3)ccc2O1`: the “% Inhibition” value is -1% and the Z score was 0.14.

For `C[C@]1(O)CCN(C(=O)c2cnc(N)nc2C(F)(F)F)C[C@@H]1O`, the “% Inhibition” value is -3% and the Z score was 0.36.

For the molecule `CN(Cc1cnc(NC[C@H]2CCCO2)nc1)Cc1ccsc1`, the “% Inhibition” value was 0% and the Z score came out at 0.07.

For `CCc1cc([C@H](C)n2ccnc2-c2ccc(NC(C)=O)cc2)on1`, the “% Inhibition” value was -7% and the Z score is listed as 1.01.

With `CCC1CCN(C(=O)C[C@@H]2NC(=O)N(c3ccc(F)cc3)C2=O)CC1`, the “% Inhibition” value was -10% and the Z score is reported as 1.5.

Turning to `C[C@H]1CN(C(=O)c2cc(-c3ccccc3)on2)c2ccccc2O1`, the “% Inhibition” value is -2% and the Z score came out at 0.24.

Take `COc1cccc(C2(CC(=O)N3CC4CCC3C4)CC(=O)N(CCN(C)C)C2=O)c1` (stereo unspecified): the “% Inhibition” value was 1% and the Z score is listed as -0.28.

For the molecule `Cc1nn(C)c(C)c1NC(=O)NCc1csc2c1CCCC2`, the “% Inhibition” value is -14% and the Z score worked out at 2.25.

As for `CCC(=O)N1CCN(C(=O)c2cccc(C)n2)C1`, the “% Inhibition” value was 11% and the Z score was -1.34.

As for `Cc1ccc(C(=O)N2CC(N3C(=O)CCC3=O)C2)cc1F`, the “% Inhibition” value is reported as -10% and the Z score was 1.82.

Take `Cc1ccccc1C1c2[nH]c3ccccc3c2C[C@H]2C(=O)N(C3CCCC3)CC(=O)N12` (stereo partly specified): the “% Inhibition” value is on record as 1% and the Z score was -0.07.

`F[C@@H]1CCN(Cc2noc3c2COCC3)C1`: the “% Inhibition” value is on record as -20% and the Z score amounted to 2.01.

As for `CCOc1cc(N2CCN(C)CC2)ccc1NC(=O)c1cscn1`, the “% Inhibition” value is listed as -30% and the Z score is reported as 6.

As for `CCCCn1nc(NC(=O)c2cc(C3CC3)[nH]n2)cc1C`, the “% Inhibition” value was 30% and the Z score was -0.58.

Regarding `O=C(Nc1cccc(Cl)c1)N1CC(Cc2nc(-c3cccnc3)no2)C1`, the “% Inhibition” value was -8% and the Z score was found to be 1.13.

As to `Cc1cnc(CCNC(=O)[C@H]2CCc3nc(C)nn3C2)c(C)c1`, the “% Inhibition” value was 9% and the Z score is recorded as -1.65.

On to `CCCc1cnc(C)nc1N1CCC[C@H](c2nccn2CC2CC2)C1`, for which the “% Inhibition” value is given as -20% and the Z score is reported as 2.61.

Regarding `Cc1ccc2cc(CN(Cc3noc(C)n3)C(C)C)c(=O)[nH]c2c1`, the “% Inhibition” value is -7% and the Z score came out at 1.05.

As to `NC(=O)Cn1cnc(-c2noc(C(F)=CC3CCCCC3)n2)n1`, the “% Inhibition” value is on record as -6% and the Z score is 0.78.

For the molecule `CCn1c(=O)c2sccc2n(CC(=O)NCc2ccc(F)cc2)c1=O`, the “% Inhibition” value came out at 5% and the Z score is on record as -0.76.

As for `COc1cccc(CC(=O)N2C[C@@H](Oc3ccccc3)C[C@H]2C(=O)NC2CC2)c1`, the “% Inhibition” value is given as -7% and the Z score turned out to be 0.88.

On to `CCC(C)N(C)CCNC1C2CCOC2C12CCCC2` (stereo unspecified), for which the “% Inhibition” value is listed as -7% and the Z score is reported as 1.18.

`Cc1cccc2c1nc1n2[C@@H](CNS(=O)(=O)c2ccccc2)COC1`: the “% Inhibition” value is -9% and the Z score was 1.15.

For `c1cc(CN[C@H]2COC[C@H]2n2ccnn2)c2cc[nH]c2c1`, the “% Inhibition” value is given as -17% and the Z score is 2.04.

`Nc1nnc(CCn2cnc(-c3ccccc3)c2[C@H]2CCOC2)s1`: the “% Inhibition” value is -2% and the Z score is recorded as 0.28.

On to `COCCNC(=O)C[C@H](CCc1ccccc1)c1c[nH]c2ccccc12`, for which the “% Inhibition” value was 1% and the Z score is -0.09.

With `O=C(c1cnc(CN2CCCC2)s1)N1CCC(c2cc(O)ncn2)CC1`, the “% Inhibition” value is on record as -13% and the Z score is reported as 2.36.

For `Cc1ccc(S(=O)(=O)NC[C@H](O)c2ccc(-c3ccsc3)cc2)s1`, the “% Inhibition” value amounted to 14% and the Z score is given as -1.92.

Regarding `CCn1ccc(C(=O)N(C)[C@@H](C)c2ccco2)cc1=O`, the “% Inhibition” value is reported as -8% and the Z score is on record as 0.78.

As to `CCN(C)C[C@H](C)c1nc(-c2c[nH]c3ccccc23)n[nH]1`, the “% Inhibition” value is listed as -8% and the Z score is reported as 0.98.

On to `O=C(C1CCCN(c2nccs2)C1)N1CCCC(n2cccn2)C1` (stereo unspecified), for which the “% Inhibition” value is given as -15% and the Z score is 1.53.

Turning to `CC(NC(C)c1nc2ccccc2n1C(C)C)C(=O)Nc1ccc(F)c(F)c1` (stereo unspecified), the “% Inhibition” value was -9% and the Z score is 0.83.

For `Clc1ccc(NCc2cnc3ncccn23)nc1`, the “% Inhibition” value is reported as -11% and the Z score was found to be 2.2.

Turning to `CC1CCCCC12NCCN=C2NC1CCCCCC1` (stereo unspecified), the “% Inhibition” value is recorded as 13% and the Z score is on record as -1.69.

Turning to `O=C(O)[C@@H]1CN(S(=O)(=O)c2cc3ccccc3o2)c2ccccc21`, the “% Inhibition” value was 35% and the Z score is given as -5.1.

As to `CCCn1ncc(NC(=O)Cn2cc(C)c(-c3ccccc3F)n2)n1`, the “% Inhibition” value amounted to 4% and the Z score was -0.58.

As usually defined, the % Inhibition is the drop in the measured response relative to a control, in per cent.
